# PubChem BioAssay AID686971 (National Center for Advancing Translational Sciences (NCATS), 2013)
# Hit rate of the full screen: of about 360,000 compounds, about 7,500 (2.1%) were called active. The inconclusive results got no clear call from the source; some entries with a clear call stand among them for comparison. The call rests on the fitted dose curve; in most records, active means well fitted cell-killing curve with a large enough effect; inconclusive means small, poorly fitted or top-dose-only effect, or effect the other way, or another doubt; inactive means no such curve, though single readings can be large or run the other way. Potencies of inconclusive entries are left out as doubtful fits.
# Assay: qHTS for induction of synthetic lethality in tumor cells producing 2HG: qHTS for the HT-1080-IDH1KD cell line;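 on activity, negative = toxicity: 0% = DMSO wells and -100% = cell-free medium wells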
# Settings: HT-1080 IDH1 knockdown viability, ATP luminescence, 48 h; activity, negative = toxicity: at 46.1 µM (top of the series) unless noted
# Outline: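 Cytotoxicity counter-line: IDH1KD HT-1080, 48 h, CellTiter-Glo. Curves classed by r2, magnitude and activity.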
# Potency means the concentration at half of the fitted maximal effect; tags describe the fitted curve by direction and shape.
SMILES,Potency,"activity, negative = toxicity"
CC1=CC(C)(C)N2C(=O)C3(NCCc4c3[nH]c3ccccc43)c3cc(C)cc1c32 (stereo unspecified),active: 14.6 µM,–
Cc1nc(/N=C(\N)NC(=O)NC2CCCCC2)nc2ccccc12,active: 14.6 µM,–
O=C(Nc1ccccc1)Nc1ccc2nnsc2c1,"inconclusive [cytotoxic, single point]",–
CCc1noc(C)c1C(=O)NNC(=O)COc1ccccc1C,–,inactive: 3.41%
CC(C)Cc1cc(C(=O)Nc2ccc3c(c2)OCO3)no1,active: 5.17 µM,–
COc1ccc(C2(CNC(=O)/C=C/c3ccco3)CCCC2)cc1OC,"inconclusive [cytotoxic, single point]",–
O=C(CSc1nc(-c2ccccc2)cc(=O)[nH]1)N1CCc2ccccc21,"inconclusive [cytotoxic, single point]",–
c1ccc(-c2nc(NCCCn3ccnc3)c3oc4ccccc4c3n2)cc1,"inconclusive [cytotoxic, single point]",–
O=C(CSc1nnc(CNC(=O)c2c(F)cccc2F)o1)NCc1ccccc1Cl,–,inactive: -4.23%
Cc1cccc(-n2nnnc2SCC(=O)Nc2ccc(N3CCN(C)CC3)cc2)c1,"inconclusive [cytotoxic, single point]",–
COc1ccc(CCNC(=O)Nc2ccc3nc([C@@H]4O[C@H](CO)[C@@H](O)[C@H](O)[C@H]4O)[nH]c3c2)cc1Br,"inconclusive [rising, single point]",–
O=C(/C=C/c1ccccc1)c1ccccc1O,"inconclusive [cytotoxic, single point]",–
CCc1ccc(NC(=O)CSC2=C(C#N)C(c3ccco3)C3=C(CCCC3=O)N2)cc1 (stereo unspecified),"inconclusive [cytotoxic, single point]",–
CC1(C(=O)NS(=O)(=O)c2cccc(F)c2)CCN1C(=O)c1cccc2ccccc12 (stereo unspecified),–,inactive: 1.27%
Cc1ccc(C(=O)NC(=S)Nc2ccc(NC(=O)c3cccs3)cc2)cc1[N+](=O)[O-],active: 20.6 µM,–
COc1ccc(/C=N/NC(=O)CCN2CCN(c3ccccc3)CC2)c(OC)c1OC,–,inconclusive: 30.6%
O=C(Nc1ccccc1Cl)c1ccc([N+](=O)[O-])o1,active: 20.6 µM,–
O=C(N/N=C/c1ccc(Br)o1)c1cccnc1,–,inconclusive: 31.1%
NC(=O)C1C2C=CC(C2)C1c1ccccc1 (stereo unspecified),–,inactive: 5.23%
CC1(C(=O)NCc2ccc3c(c2)OCO3)CCN1C(=O)CCc1ccc(Cl)cc1Cl (stereo unspecified),"inconclusive [cytotoxic, partial curve]",–
COc1ccccc1-c1csc(C(O)c2ccc(F)c(F)c2)n1 (stereo unspecified),"inconclusive [cytotoxic, single point]",–
